Binding signal data for 22 molecules are collected here from publication PMC12136788.

T1: UNK ZnF1-3 (human, UniProt Q9C0B0 31-174)
T1 sequence: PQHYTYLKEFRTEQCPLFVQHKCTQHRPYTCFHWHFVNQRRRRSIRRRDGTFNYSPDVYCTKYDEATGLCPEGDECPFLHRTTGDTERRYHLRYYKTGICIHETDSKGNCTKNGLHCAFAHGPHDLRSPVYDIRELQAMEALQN

B1: chr16:94651144:94651145:+_ENSMUSG00000040785_ENSMUST00000117648|mus_hu|mus_mus_mus_hu_True|18_98 (ssRNA)
RNA: GGGAGUUCUACAGUCCGACGAUCAUUUUCUUGAAUCAAGUGACCGAUAACAUAGUCCACUGCUUCAUUUAGAAAAUUUCUGCUAGAAAAACAGGUUGUAUAGUCUUCUGUGCUCAAAACCUUCCAAGAAAGCAAUUCUUUGAGCAACAGAGGAUUGAGCAUCA
B2: chr7:141438946:141438947:+_ENSG00000106028_ENST00000265304|hu_mus|hu_hu_hu_mus_True|58_108 (ssRNA)
RNA: GGGAGUUCUACAGUCCGACGAUCGACUACCUGUAAUUAACACAGGUCUUCGAAACAUGGCUUCUGUUUUUCUUACAGUCUAAUCUUUAGGCUUUUCCUAAAGGAAAGAAAGAAAAGAGAAAAAUGAUAAAUCAAGAAACUACACAACAGAGGAUUGAGCAUCA
B3: 21814299_21815161_997_CDS_ENSMUSG00000021823_ENSMUST00000022369|mouse|control|control (ssRNA)
RNA: GGGAGUUCUACAGUCCGACGAUCUCCUAGGAUCUCCCUGCGUUCCUUGCCUGCACAAAGUUCACCAACUUUUCCAGCUUCAUCUAAGAUCUGCCUGAUGGCCUGCUCUCCAGCAUCCCCUGGGGAGGCAUUGGGGUCACGGAGCAACAGAGGAUUGAGCAUCA
B4: 44741183_44746912_2703_CDS_ENSG00000105953_ENST00000222673|human|control|control (ssRNA)
RNA: GGGAGUUCUACAGUCCGACGAUCUUUGCCGGUGCAGAAGAGAAGCCUUUUGACAUUUUCUGGGUUCUGAGCUGCAGGGCCAUCUUCUGGGAUCACCCGCUGGAAGUGGGUUCCUGGAAGCAUCUCAUCAAAGCUGGAUCUGGCCAACAGAGGAUUGAGCAUCA
B5: chr2:180453240:180453241:+_ENSMUSG00000027573_ENSMUST00000029090|mus_hu|FALSE|FALSE (ssRNA)
RNA: GGGAGUUCUACAGUCCGACGAUCAACACAUAGCCCCCUCACACGCAUCCCCCAAAAGCCACACAACCCAGACCAAAGGGAAAACAAAUCAAACUCAAUGCCCUCACACAUGAGCCAUCUUUGAAUUAGGAUUUACAAAUUUAUCAACAGAGGAUUGAGCAUCA
B6: chr6:119226881:119226882:+_ENSG00000111875_ENST00000229595|hu_mus|motif|central (ssRNA)
RNA: GGGAGUUCUACAGUCCGACGAUCUGGGUUUUCCCUUAAUUCUGUUUCAGUGUAUUCAUUAUUUACAUAGUAGCCAACUCGGAUAAAUUCUUGACCUCGGUAGGUGCAAGUAAUCAGAACAACUGUUACCCCCACUGCAUCUGCCAACAGAGGAUUGAGCAUCA
B7: chr16:21666878:21666879:+_ENSG00000197006_ENST00000396014|hu_hu|FALSE|FALSE (ssRNA)
RNA: GGGAGUUCUACAGUCCGACGAUCUUUAAAAACAUUCCUUUACACACUACAAAGAAAUAAUUAGUAUUUUGGCUUUUUAAAUUCCUACAUGAUAUUUAGAAUGGCGGUCCCCAAGGGUCCUCCCUUCACGUAAUUGUGAACACACAACAGAGGAUUGAGCAUCA
B8: chr20:17594467:17594468:-_ENSG00000125844_ENST00000246043|hu_hu|motif|central (ssRNA)
RNA: GGGAGUUCUACAGUCCGACGAUCUUGAGAACUGGCUGCCCGGUCCCACCCGCUUCCCGCCCCGCCCCACUGAAAAAACACGGAACGAUUGCACUGACAGACAGACCCCAGAGCGCCCGGCCUCCCACACACCCACGGGGCUGUCAACAGAGGAUUGAGCAUCA
B9: chr15:38777322:38777323:+_ENSG00000171262_ENST00000397609|hu_mus|motif|central (ssRNA)
RNA: GGGAGUUCUACAGUCCGACGAUCUCAACCUAUUUUUCAAAAAGGACAACUGACUAUGCACAUAUAUUAGACACUUCCUCGGUUUUGUAAAAUAGAAUUAACAAUACAGGGCAGAUCCACAGGUAUACAAAUGACAUGAGAGUCCAACAGAGGAUUGAGCAUCA
B10: 138611613_138613062_648_5pUTR_ENSMUSG00000029730_ENSMUST00000000505|mouse|control|control (ssRNA)
RNA: GGGAGUUCUACAGUCCGACGAUCCUUAACUUUUUCUUUUUCGAUCGCGUAGUCCUUAAGCGCCAUCGCUGCCGGGGACGGUGUGGCAGGACUUGAAGGGCUCAAAAAUCUCUCUCUGGGGAAGCAGAAAACGAACGCGCGGCGCAACAGAGGAUUGAGCAUCA
B11: chr19:16212804:16212805:+_ENSG00000167460_ENST00000300933|hu_mus|hu_hu_hu_mus_False|8_48 (ssRNA)
RNA: GGGAGUUCUACAGUCCGACGAUCAACAAUUCUGGAGUGAAGGAAAGAUGUAACAUGGAACAGCAUUAAAGCUCAGUCAGAAGGCACGUGGGUAAUUAUGAUCACCCCAGCAUUCUCGCUUGGAAUGUGCUUGAGAAAUCUGUUCAACAGAGGAUUGAGCAUCA
B12: chr14:76904430:76904431:+_ENSMUSG00000022010_ENSMUST00000022587|mus_mus|mus_mus_mus_hu_True|58_58 (ssRNA)
RNA: GGGAGUUCUACAGUCCGACGAUCUGCAGCCAAAAACACCCUCGUGGAAAAAAAGAGGGAACACCAGCAGCCUUGUACAAACUAGAUAAAAUCUUCUGGCUUUCCGCAGCCCAGGGAGAAACAGAAAACGGCAGCCCUAAUUUACAACAGAGGAUUGAGCAUCA
B13: chr18:48606039:48606040:+_ENSG00000141646_ENST00000342988|hu_hu|FALSE|FALSE (ssRNA)
RNA: GGGAGUUCUACAGUCCGACGAUCACAUAUUGUGUCUGUGGUACAGUCAAUACAUCUGCAACUUUUCUACUUAAAUUCUCUAUACAAAGUCACUGCCAAUUGAUAUGAUCAUUGAUGGCAAAGGGCUUAGAAUAACCAAAAGAUCAACAGAGGAUUGAGCAUCA
B14: chr1:220276048:220276049:+_ENSG00000067704_ENST00000302637|hu_hu|hu_hu_hu_mus_True|1_68 (ssRNA)
RNA: GGGAGUUCUACAGUCCGACGAUCGCAAAUUGCCUGGUUGGCGGGAAUUGUCCAAGGCUGGGUGGUCCAGACCAAAACGCUAACAGGGGAUGAGGCAUCUGUAAGAGACUCCAACUUCGGAGGAGGUCUCAGGAGGGGAAAUUUCAACAGAGGAUUGAGCAUCA
B15: chr10:89574256:89574257:-_ENSG00000138138_ENST00000328142|hu_mus|FALSE|FALSE (ssRNA)
RNA: GGGAGUUCUACAGUCCGACGAUCCUGAGCUUCUACCUUCUGCUUCCUGGUGGGGUCAAUGGCAUCUACCAUCCAUUUAAUAGUGAAGUACGUUACUGCACCAAAUAUUGUUAAACGGAAAAUUAAACCGACAACUUCAUUCCGCAACAGAGGAUUGAGCAUCA
B16: chr3:179342097:179342098:+_ENSG00000136521_ENST00000259037|hu_mus|FALSE|FALSE (ssRNA)
RNA: GGGAGUUCUACAGUCCGACGAUCAGUUCCUGAAUAUUCACAGGACCGCUGCACCUUCCACCUGCCAGACAACGGCAUCAGCAGCUUAUCAACAGUGUCACUUUAGGAAUUCACAACUUCCCAGACCUCCAGGUUUCAUUACUACAACAGAGGAUUGAGCAUCA
B17: chr14:32000333:32000334:-_ENSMUSG00000021910_ENSMUST00000168206|mus_hu|motif|central (ssRNA)
RNA: GGGAGUUCUACAGUCCGACGAUCGUCCCGGAGAUCCAGGUUGACCAGUGAGUAGAGCUUGUGCAGGCCACUCAGACUCUCGGGGAGGUUGCCUGCCAGGUUUAAGGUCUUGAUGUUCCCCAGCUUGGUGUGAAGCCCUUCCAACAACAGAGGAUUGAGCAUCA
B18: chr2:5814250:5814251:-_ENSMUSG00000025816_ENSMUST00000102981|mus_hu|mus_mus_mus_hu_True|28_58 (ssRNA)
RNA: GGGAGUUCUACAGUCCGACGAUCUUCCUUUCCGGUUUCUGAAUUUCUGGUAGAACUGCACAGAAUGGUUUGAUAACUUCUAAAAACUUGAUGCCCAUGGCUGCUGCUCAGCACACCCAGGGGGAAACCGCGGCCUCGGCGCUGCAACAGAGGAUUGAGCAUCA
B19: 2404108_2406015_1217_CDS_ENSG00000106263_ENST00000360876|human|control|control (ssRNA)
RNA: GGGAGUUCUACAGUCCGACGAUCCCAGAUGAUUAUGGCCUGAGGGUCAUCCUGCGUGUCCAUCAGGGGGCUAAAGGUCACCAGGUACCUUUCACAAGGUGAGAAGUCAAUAAGCUGAACCCCUUGGUGGCUGAAUCUCUGAAUCAACAGAGGAUUGAGCAUCA
B20: chr13:100193275:100193276:-_ENSMUSG00000052727_ENSMUST00000064762|mus_hu|FALSE|FALSE (ssRNA)
RNA: GGGAGUUCUACAGUCCGACGAUCGUUUUCUUCCCACGCAUUAUGUAGACCAAUUCAACUUAAGAGCUAACCAUUAAAUAAUUAUCUUGAGUAUCUUAGGUUGUGUUAUAAAAUAAAUUUGAAGUAGAUGAGUUUAUACUCAAUCAACAGAGGAUUGAGCAUCA
B21: chr1:78194255:78194256:-_ENSG00000077254_ENST00000357428|hu_mus|FALSE|FALSE (ssRNA)
RNA: GGGAGUUCUACAGUCCGACGAUCAUUGCUGUCCUCAGGAAAGCCUUUGGAGCCACUCUCAUUUUCUGCUUUCUCGCUGCUGCUACAAGACUCGCACGACUGAAAAUCCACAUCUGACUGGCUCUUCUCUUCCUCCACCGUCUCCAACAGAGGAUUGAGCAUCA
B22: chr1:39494564:39494565:+_ENSG00000168653_ENST00000372967|hu_hu|hu_hu_hu_mus_True|1_18 (ssRNA)
RNA: GGGAGUUCUACAGUCCGACGAUCAUGCAUUCGCCUCAUCGUUUUGUACCGAAGCAAGCACUCUUCGAAGUCAUCGAACUCUAUCUUGCACUCCUUUUUCGCCCGGGUCCCACCGAUUCCAUGUGCACACUCUAUCCAUUCUUUCAACAGAGGAUUGAGCAUCA

The other results are listed elsewhere or left out.

This test has as its target T1, UNK ZnF1-3. Kind of test: nsRBNS (natural sequence RNA bind-n-seq); RBNS binding buffer (assumed for nsRBNS): 25 mM Tris pH 7.5, 150 mM KCl, 3 mM MgCl2, 0.01% Triton X-100, 500 ug/ml BSA, 20 U/ml SUPERase-In, 4 C; UNK is unkempt and MSI1 is Musashi-1; names of the RNAs are library labels; protein concentration not given here; high values mean tight binding.
Turning to B1, the binding signal was 0.493 enrichment R. B2 yielded a binding signal of 0.498 enrichment R. For the molecule B3, the binding signal was determined as 0.759 enrichment R. For the molecule B4, the binding signal turned out to be 1.08 enrichment R. B5 displayed a binding signal of 1.87 enrichment R. For B6 the value was 0.872 enrichment R; for B7, 0.916 enrichment R; for B8, 0.942 enrichment R. The molecule B9 had a binding signal of 0.894 enrichment R. The molecule B10 had a binding signal of 1 enrichment R.

B11 gave a binding signal of 1.18 enrichment R. For B12 the value was 2.26 enrichment R; for B13, 0.795 enrichment R; for B14, 1.58 enrichment R. Molecule B15 came in with a binding signal of 1.26 enrichment R. As for B16, the binding signal turned out to be 1.13 enrichment R. Regarding B17, the binding signal was found to be 0.833 enrichment R. For B18 the value was 0.976 enrichment R; for B19, 0.415 enrichment R; for B20, 1.58 enrichment R. For B21 the value was 0.818 enrichment R. For B22, the binding signal was found to be 0.61 enrichment R.
